# Data as given in article PMC12136788.
# Some of the results follow.
# B1: chr1:10178627:10178729:+|CDS|ENSG00000130939|unk|total|mutant (ssRNA)
# RNA: GGGAGUUCUACAGUCCGACGAUCUAAGGAAUUGUUUGAAGAAGUUAUUUCAAAGAUGCGGAAGGCAGGGAUCAAAUCCACAACCGCAACCGAAAAAUUUAAGCUGCUCGCCGAGAAAGUGGAGGAGACCGUGGCCAAGAACGCCAACAGAGGAUUGAGCAUCA
# B2: ENSG00000006715:stop:overlap|stop_codon|ENSG00000006715|stop_codon|NA|stop_codon (ssRNA)
# RNA: GGGAGUUCUACAGUCCGACGAUCGCAACAUCUGCAGUGCUAAGAACCGUGGACCAGGAAGUGCAAUUUUGGAGAUGAAAAAAUAGCUCAUUUCUCCUUGUCAGUCUCCUUGUCACCACUCUUUUUGAGACUGUUUUUGCAACACAACAGAGGAUUGAGCAUCA
# B3: chr10:80519475:80519574:+|3pUTR|ENSG00000108219|msi1_unk|total|mutant (ssRNA)
# RNA: GGGAGUUCUACAGUCCGACGAUCAGUGUGGUGUAUACUGGUGGCUGUUGAUGAUGAUUUUUUUUUUUUUACACAAUUCUCUGCCGACCCGGAGAAGAAUGCUUGUGUUUUUCGGAAGUGUGAUGCUUCUCUUUGACUGCCAAACAACAGAGGAUUGAGCAUCA
# B4: chr8:76983344:76983445:-|CDS|ENSG00000164751|msi1|total|mutant (ssRNA)
# RNA: GGGAGUUCUACAGUCCGACGAUCAGCCACCAGUGGCAAAGAAUGCGCUCUAUGUGGAGAGUGGCCCACCAUGCCUCACACCACCGGAUGUGAGCAUAUUUUCUGUUAUUUCUGUGCUAAGAGCCGUUUCUUAUUUGACGUGUACAACAGAGGAUUGAGCAUCA
# B5: ENSG00000143815:stop:overlap|stop_codon|ENSG00000143815|stop_codon|NA|stop_codon (ssRNA)
# RNA: GGGAGUUCUACAGUCCGACGAUCGAUUGAUUGGAUGGGAACCUCGACAGGACUCCACAAUACAUUUAGUUGUUAUUCCUUCUUAGUCUUCUCUAGUCUAAUAGUUGUUUAGGCUUUCCUUGUCUCUCAUGACCUUGAUACUUUCAACAGAGGAUUGAGCAUCA
# B6: chr6:11183581:11183682:-|3pUTR|ENSG00000111859|msi1|FALSE|unique (ssRNA)
# RNA: GGGAGUUCUACAGUCCGACGAUCAAAACAAGAAUGCAUGAUCUCAGAGUGAUUAAAAAAAAAUCAGUGGAAAUAAAUGAUCAUAGAAGGUGCUUUUCAAAACAACUGCUAUUAUAAUUCUCAAAGUCCUACUCUGCCAAAAGACAACAGAGGAUUGAGCAUCA
# B7: ENSG00000165476:stop:overlap|stop_codon|ENSG00000165476|stop_codon|NA|stop_codon (ssRNA)
# RNA: GGGAGUUCUACAGUCCGACGAUCAAGAGGUGCGGUACGGGUCACUAAAAUACAAAGUGAAGAAACGACCACAAGUGUAUUUUUAGUCAUCUACACGUCAAAUAUCCCAAGACAGAUUAUGCUAAAUACAUCGACUUCAUCUUCCAACAGAGGAUUGAGCAUCA
# B8: chr3:183812448:183812549:+|3pUTR|ENSG00000163872|msi1|total|mutant (ssRNA)
# RNA: GGGAGUUCUACAGUCCGACGAUCUAUUGCAGGUAUCACAGCCUAAAGAAAUUAUCUUUUUGCAAAAGAAAUAUUAAAUGAUUCCGCAGUCUCCACGUGUGUUAAUGUUUCAAACGUGUAUCAUAAUGUGUAUAAUUGUGUAACCAACAGAGGAUUGAGCAUCA
# B9: chr4:8867047:8867692:-|three_prime_utr|ENSG00000215612|control|control|control (ssRNA)
# RNA: GGGAGUUCUACAGUCCGACGAUCGACCCUGUGGACCUGUGUGGACGCGCGAUUCAGCGGCAGGCGCAGGGCUCAGGGGGCGUUAGGGAAGGGAUGGUCGCUCCUGCGGCCUCCUAGAUACCUCGGGAGCGCAGGCCGCGGCCGCAACAGAGGAUUGAGCAUCA
# B10: chr21:36896991:36897096:-|CDS|ENSG00000159267|unk|total|mutant (ssRNA)
# RNA: GGGAGUUCUACAGUCCGACGAUCCAGUGGCUUGGGAAACAUGUGGACUCCGAGGGAGAAAUAAAAUCCGGCCAGCUCUCUCUCCGAUUUGUUUCAUCCUACGUGUCUGAAGCCGAAAUAACCCCAUCUUGUAUACCUGUGGUGCAACAGAGGAUUGAGCAUCA
# B11: chr3:168010103:168010202:-|3pUTR|ENSG00000173905|msi1_unk|total|mutant (ssRNA)
# RNA: GGGAGUUCUACAGUCCGACGAUCGCUCAAACAUAAAUCUGCCUACUGAACUCCCGGAUAUUUAAUUACAAAAAUUAAGAACUCCGACUUUUUUAAAACUUUUGUAUCCGAAAUGCGCAUACAUUUAUAUGAAUAUAUUUUGAUCAACAGAGGAUUGAGCAUCA
# B12: chr1:169690664:169691783:-|three_prime_utr|ENSG00000188404|control|control|control (ssRNA)
# RNA: GGGAGUUCUACAGUCCGACGAUCAGUUUUCUUGCAGAUCAAAUUUCACGUCGUCUUCUGUAUACUGUGGAGGUACACUCUUAUAGAAAGUUCAAAAAGUCUACGCUCUCCUUUCUUUCUAACUCCAGUGAAGUAAUGGGGUCCCAACAGAGGAUUGAGCAUCA
# B13: chr1:40238196:40238297:+|CDS|ENSG00000117000|msi1|FALSE|unique (ssRNA)
# RNA: GGGAGUUCUACAGUCCGACGAUCCGGUAUUCCCCAUUUCAGUGUCAUAUUUGCCAAAGGUCAUUUACAAGAAAAACACACCUUAGGAUUCAUUAUAAAAAUAAACAUCAAAUUGGCAGUGACAGAGCAACUCACAAACUAUUACAACAGAGGAUUGAGCAUCA
# B14: chr17:5346795:5346911:+|CDS|ENSG00000029725|unk|FALSE|unique (ssRNA)
# RNA: GGGAGUUCUACAGUCCGACGAUCAGAACUGAAUCAUUAUCUGGAAGCUGAGAAAUCUUGUAGGACUGAUCUAGAGAUGUAUGUAGCUGUUUUGAAUACUCAGAAAUCUGUUCUACAGGAAGAUGCUGAGAAACUGCGGAAAGACAACAGAGGAUUGAGCAUCA
# Target: MSI1 full-length (mouse, UniProt Q61474 1-362)
# Test: nsRBNS (natural sequence RNA bind-n-seq); RBNS binding buffer (assumed for nsRBNS): 25 mM Tris pH 7.5, 150 mM KCl, 3 mM MgCl2, 0.01% Triton X-100, 500 ug/ml BSA, 20 U/ml SUPERase-In, 4 C; UNK is unkempt and MSI1 is Musashi-1; names of the RNAs are library labels; protein concentration not given here; high values mean tight binding
# Chain of UniProt Q61474 (Q61474 whole entry): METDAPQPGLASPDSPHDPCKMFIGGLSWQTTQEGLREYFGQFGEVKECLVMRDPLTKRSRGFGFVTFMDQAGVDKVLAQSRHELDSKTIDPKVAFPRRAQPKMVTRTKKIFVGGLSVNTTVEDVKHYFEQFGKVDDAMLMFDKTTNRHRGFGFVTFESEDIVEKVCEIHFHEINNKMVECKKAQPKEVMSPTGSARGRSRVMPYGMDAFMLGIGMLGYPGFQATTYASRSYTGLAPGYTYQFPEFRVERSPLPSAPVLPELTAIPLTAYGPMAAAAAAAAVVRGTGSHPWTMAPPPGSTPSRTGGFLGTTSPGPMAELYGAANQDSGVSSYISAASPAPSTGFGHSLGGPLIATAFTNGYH
row,Binder,binding signal
1,B1,0.449 enrichment R
2,B2,0.498 enrichment R
3,B3,0.356 enrichment R
4,B4,0.344 enrichment R
5,B5,0.398 enrichment R
6,B6,0.369 enrichment R
7,B7,1.14 enrichment R
8,B8,0.427 enrichment R
9,B9,0.389 enrichment R
10,B10,0.447 enrichment R
11,B11,1.09 enrichment R
12,B12,0.432 enrichment R
13,B13,1.79 enrichment R
14,B14,2.42 enrichment R
